Experimental findings from paper PMC4336329 (PLoS ONE, 2015) are described below.

Among all 310,000 compounds or so, about 2,200 (0.71%) showed an effect of 50% or more. The effect is printed as a negative number. Some of the results follow.

The target in the assay is human ether-à-go-go-related gene (hERG) potassium channel (human, UniProt Q12809). The experiment in a line: primary screen, population patch clamp on CHO cells stably expressing hERG.
Sequence of human ether-à-go-go-related gene (hERG) potassium channel (Q12809 whole entry, looked up): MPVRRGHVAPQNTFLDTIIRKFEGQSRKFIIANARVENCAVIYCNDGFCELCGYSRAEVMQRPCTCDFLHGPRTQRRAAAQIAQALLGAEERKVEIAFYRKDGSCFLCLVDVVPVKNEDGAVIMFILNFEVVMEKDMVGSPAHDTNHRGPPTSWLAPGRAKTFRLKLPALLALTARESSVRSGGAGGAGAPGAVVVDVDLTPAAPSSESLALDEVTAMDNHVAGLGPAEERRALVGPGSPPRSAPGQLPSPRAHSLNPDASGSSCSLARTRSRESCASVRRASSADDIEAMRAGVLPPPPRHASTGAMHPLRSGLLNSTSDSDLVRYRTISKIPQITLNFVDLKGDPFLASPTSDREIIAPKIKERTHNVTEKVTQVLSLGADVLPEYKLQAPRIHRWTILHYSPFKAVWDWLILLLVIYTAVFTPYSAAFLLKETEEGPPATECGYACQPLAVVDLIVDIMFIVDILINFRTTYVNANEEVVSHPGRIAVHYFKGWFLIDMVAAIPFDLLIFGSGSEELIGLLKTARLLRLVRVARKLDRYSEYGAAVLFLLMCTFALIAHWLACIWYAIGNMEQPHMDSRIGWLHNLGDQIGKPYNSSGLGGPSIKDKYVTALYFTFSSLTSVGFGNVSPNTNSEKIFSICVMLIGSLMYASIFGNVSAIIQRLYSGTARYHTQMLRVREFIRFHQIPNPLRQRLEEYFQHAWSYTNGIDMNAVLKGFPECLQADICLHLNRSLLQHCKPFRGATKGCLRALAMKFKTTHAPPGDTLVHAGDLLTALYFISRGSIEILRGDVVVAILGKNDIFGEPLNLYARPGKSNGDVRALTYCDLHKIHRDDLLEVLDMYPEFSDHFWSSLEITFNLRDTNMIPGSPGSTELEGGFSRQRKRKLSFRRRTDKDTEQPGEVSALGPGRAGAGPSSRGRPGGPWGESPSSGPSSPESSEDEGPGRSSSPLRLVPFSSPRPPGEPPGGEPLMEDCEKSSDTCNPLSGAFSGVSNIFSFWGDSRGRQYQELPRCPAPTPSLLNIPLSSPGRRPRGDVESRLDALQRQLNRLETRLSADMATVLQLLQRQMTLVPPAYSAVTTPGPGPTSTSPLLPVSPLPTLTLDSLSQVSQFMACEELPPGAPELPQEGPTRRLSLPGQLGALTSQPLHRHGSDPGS
With `CCn1cc(C(=O)OC)c(=O)c2ccc(C)nc21`, the “hERG current change (%, negative = inhibition) at 1uM” value stood at 5.49%.
The result for `CN(C)S(=O)(=O)c1ccc(Cl)c(-c2nnc3n2CCCCC3)c1` reads 7.11%.
The figure for `CCOc1ccccc1NC(=O)c1nnn(CC(=O)Nc2cc(C)cc(C)c2)c1N` is 14.1%; for `NC(=O)c1ccc[n+](CCC[n+]2cccc(C(N)=O)c2)c1.[Br-]` it is 15%.
On to `COc1ccc(/C=N/Nc2ccccn2)cc1O`, for which the “hERG current change (%, negative = inhibition) at 1uM” value is 6.67%.
As to `COc1ccc(-c2cc(=O)n(-c3ccc([N+](=O)[O-])cc3)[nH]2)cc1`, the “hERG current change (%, negative = inhibition) at 1uM” value is recorded as -3.01%.
Take `COn1c(=O)c(=O)n(OC)c2ccccc21`: the “hERG current change (%, negative = inhibition) at 1uM” value came to 1.62%.
The figure for `O=C(COC(=O)C1C2CC3OC(=O)C1C3C2)Nc1ccccc1` (stereo not drawn) is 10.4%; for `CC(C)c1c(O)nc(SCc2ccccc2)[nH]c1=O` it is 15.3%.
For `N#C/C(=C\c1cccs1)C(=O)c1ccccc1`, the “hERG current change (%, negative = inhibition) at 1uM” value was determined as 12.6%.
The result for `Cc1nn(-c2cccc(C(F)(F)F)c2)c(Cl)c1/C=N/Nc1cccc(C(=O)O)c1` reads 12.3%; that for `O=C(O)/C=C/C(=O)NCCC(c1ccccc1)c1ccccc1`, 16.7%; that for `CCc1nnc(NC(=O)CSc2nnc(-c3ccco3)n2CC)s1`, 9.88%.
The figure for `CCOc1ccc(/C=C(\C#N)C(=O)Nc2ccccn2)cc1` is 8.95%; for `NS(=O)(=O)c1ccc(CCNc2nc(CN3CCOCC3)nc3sc4c(c23)CCC4)cc1` it is 3.28%.
The figure for `O=C(CCl)Nc1cc2[nH]c(=O)[nH]c2cc1Br` is 12.7%; for `CC(C)(C)OC(=O)[C@H](CCCC[NH3+])NC(=O)c1nc[nH]c1C(=O)NCCCCC[NH3+].[Cl-]` it is 4.8%; for `COc1ccc(OC)c(-c2csc(NC(=O)c3ccccc3F)n2)c1` it is 12%.
Regarding `COc1ccc(Oc2nc(-c3cccnc3)nc3ccccc23)cc1`, the “hERG current change (%, negative = inhibition) at 1uM” value stood at 11.1%.
The figure for `CCCCc1nnc(NC(=O)C2CCN(c3ncnc4sc(C)c(C)c34)CC2)s1` is 16.7%; for `O=C(CCc1nnc(Cc2ccc3c(c2)OCO3)o1)NCCc1ccccc1Cl` it is 10%.
Consider `COc1cc(/C(C)=N/NC(=O)c2ccc(CSc3nncn3C)cc2)cc(OC)c1OC`, for which the “hERG current change (%, negative = inhibition) at 1uM” value is listed as 5.47%.
For the compound `CC(C)c1ccc(-c2csc3nc[nH]c(=O)c23)cc1`, the “hERG current change (%, negative = inhibition) at 1uM” value is listed as 12.9%.
In the case of `COc1ccc(N(CC(=O)Nc2ccc3c(c2)OCO3)S(=O)(=O)c2ccccc2)cc1`, the “hERG current change (%, negative = inhibition) at 1uM” value came to 9.01%.
Take `O=C(O)C1CCN(c2ccccc2[N+](=O)[O-])CC1`: the “hERG current change (%, negative = inhibition) at 1uM” value is listed as 3.56%.
The figure for `COc1ccc2c(c1)CCc1c(C(=O)NCCc3ccc(OC)c(OC)c3)noc1-2` is 0.875%; for `CSc1ccc(S(=O)(=O)NCCCn2ccnc2)cc1` it is 4.06%.
With `O=C(c1cc2cc(Br)ccc2o1)N1CCN(c2ccccc2)CC1`, the “hERG current change (%, negative = inhibition) at 1uM” value worked out at 11.3%.
The figure for `O=C(NCCCn1ccnc1)C(=O)NCC1OCCN1S(=O)(=O)c1ccc(Br)cc1` (stereo not drawn) is 12%; for `O=c1cc(/N=C/c2coc3c(ccc4ccccc43)c2=O)[nH]c(=S)[nH]1` it is 9.15%.
In the case of `COc1ccc(C(=O)NC(C)Cc2cnccn2)cc1OC1CCN(C(C)C)CC1` (stereo not drawn), the “hERG current change (%, negative = inhibition) at 1uM” value worked out at 13.1%.
The figure for `CC(CS(=O)(=O)c1ccccc1[N+](=O)[O-])N1CCOCC1` (stereo not drawn) is 5.44%.
Take `CC1CC(=O)N(c2ccc(NCc3ccccc3Cl)c([N+](=O)[O-])c2)C1=O` (stereo not drawn): the “hERG current change (%, negative = inhibition) at 1uM” value is recorded as 5.29%.
The result for `O=[N+]([O-])c1cccc(CN(CCO)Cc2ccccc2)c1` reads 1.48%; that for `c1ccc(OCc2nc3ccccc3s2)cc1`, 8.74%.
The result for `CCCCOc1ccc(C(=O)CCN2CCOCC2)cc1.Cl` reads 4.11%.
For `CCn1c(CC(=O)Nc2ccc(F)cc2)nnc1SCC(=O)Nc1nncs1`, the “hERG current change (%, negative = inhibition) at 1uM” value came out at 1.78%.
Consider `Cc1cccc(NC(=O)Cn2nc(-c3cccs3)ccc2=O)c1C`, for which the “hERG current change (%, negative = inhibition) at 1uM” value came to 13.2%.
In the case of `CC(=O)Nc1ccc(C(=S)NCCCO)cc1`, the “hERG current change (%, negative = inhibition) at 1uM” value was 11.3%.
Consider `Cc1c(CCN)ccc2c1[nH]c1ccccc12`, for which the “hERG current change (%, negative = inhibition) at 1uM” value stood at 13.8%.
For the compound `O=C1N(CCCCN2C(=O)C3(OCCO3)c3ccccc32)c2ccccc2C12OCCO2`, the “hERG current change (%, negative = inhibition) at 1uM” value is 7.7%.
As for `O=C(NNC1=NS(=O)(=O)c2ccccc21)C1CC(=O)N(c2ccccc2)C1` (stereo not drawn), the “hERG current change (%, negative = inhibition) at 1uM” value is listed as 6.86%.
With `CN(C)c1ccc(/C=C/c2nc3ccccc3c(=O)[nH]2)cc1`, the “hERG current change (%, negative = inhibition) at 1uM” value is on record as 16.1%.
For the compound `COc1ccc(/C=C/C(=O)O)cc1S(=O)(=O)Nc1ccc2c(c1)OCO2`, the “hERG current change (%, negative = inhibition) at 1uM” value is 12.7%.
The figure for `CN(C)c1ccc(NC(=S)NC(=O)/C=C/c2ccc(Cl)cc2)cc1` is 6.65%; for `COc1ccc2c(c1)c(=O)oc1c(C)c(OC(C)C(=O)N[C@@H](Cc3c[nH]c4ccc(O)cc34)C(=O)O)ccc12` (stereo partly drawn) it is 19.3%.
The figure for `CC1CCN(C(=O)CSc2nnc(CNC(=O)c3ccc(F)cc3)o2)CC1` is 2.35%; for `NC(=O)CC(NC(=O)Cc1ccc(Cl)cc1)c1ccc(NC2CCCCC2)c([N+](=O)[O-])c1` (stereo not drawn) it is 9.26%; for `Cc1cc(O)c(C2=Nc3ccccc3SC(c3ccc(Cl)cc3)C2)c(=O)o1` (stereo not drawn) it is 12.5%.
The figure for `CNc1nc2c(c(=O)[nH]c(=O)n2C)n1CCCc1ccccc1` is 19.2%; for `COc1ccc(-c2c(C)nn3c(NC4CCCC4)cc(C)nc23)cc1OC` it is -18.6%.
Regarding `Cc1c(F)cccc1NC(=O)CCCCCC1NC(=O)NC1C` (stereo not drawn), the “hERG current change (%, negative = inhibition) at 1uM” value came out at 4.28%.
On to `Cc1ccc(C(=O)NCC(=O)OCC(=O)Nc2ccc(Cl)cc2C(F)(F)F)cc1C`, for which the “hERG current change (%, negative = inhibition) at 1uM” value amounted to 3.41%.
Consider `O=C(NCCCN1CCOCC1)c1nn(-c2ccccc2)c(=O)c2ccccc12`, for which the “hERG current change (%, negative = inhibition) at 1uM” value turned out to be 9.21%.
The figure for `COC(=O)c1cc(Br)c(=O)n(Cc2ccco2)c1` is 9.31%; for `Cc1ccc(OC(=O)CCNC(=O)c2ccccc2Cl)c(Br)c1` it is -0.579%; for `CC(C)(Cc1ccccc1)/[N+]([O-])=C\c1ccc(C(F)(F)F)cc1` it is 7.04%.
